This note sets out measurements from publication PMC8047445, “A weakened interface in the P182L variant of HSP27 associated with severe Charcot‐Marie‐Tooth neuropathy causes aberrant binding to interacting proteins” (The EMBO Journal, 2021).

This data set concerns the molecule itself. Kind of data set: SEC-MALS; 250 ug injected, 40 uM monomer; Superdex-200 (WT and P182L HSP27) or Superdex-75 (cHSP27 C137S); 30 mM sodium phosphate, 100 mM NaCl, 2 mM EDTA, pH 7. (In gel filtration, larger molecules generally elute earlier.)

B1: cHSP27 with the C137S mutation (domain or fragment)
chain: not shown
notes: HSP27 (HSPB1), human, alpha-crystallin domain, […], C137S; Used for SEC-MALS; the tag and its cleavage are told for cHSP27 in general; also called cHSP27(C137S); source: E. coli, purified as described previously (Alderson et al, 2019); not shown: His6, N-terminal, cleaved
On to B1, for which the “stoichiometry N” value was 2.

B2: full-length P182L variant of HSP27 (natural protein)
chain: not shown
notes: HSP27 (HSPB1), human, […], with the CMT disease-causing mutation P182L; Oligomers of on average ca. 620 subunits by SEC-MALS; also called P182L HSP27; source: E. coli, inclusion bodies solubilized in 8 M urea, dialyzed, Superdex 200 gel filtration
In the case of B2, the “stoichiometry N” value is roughly 620 subunits.

A word on the stoichiometry N: it is the number of molecules, sites or subunits per partner or assembly.
